{
  "source": "PubChem BioAssay AID651820",
  "about": "(National Center for Advancing Translational Sciences (NCATS), 2012)",
  "note": "The campaign covered roughly 340,000 compounds. About 12,000 (3.5%) were called active. The inconclusive results got no clear call from the source; some entries with a clear call stand among them for comparison. Calls follow the shape of the dose curve; as a rule, active = well fitted inhibition curve with a large enough effect; inconclusive = small, poorly fitted or top-dose-only effect, or another doubt; inactive = no such curve, though single readings can be large or run the other way. Potencies of inconclusive entries are left out as doubtful fits. Potency is read from the fitted curve at half-maximal effect; tags tell the direction and shape of the fitted curve.",
  "data": [
    {"assay": "qHTS Assay for Inhibitors of Hepatitis C Virus (HCV)", "settings": "Huh7.5.1 HCVcc-Cre (HCVcc is cell-culture hepatitis C virus) infection, luciferase reporter, 44 h; series mostly up to 41.8 µM", "in_short": "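Luciferase read-out (15 sec integration) after a 15 min room-temperature substrate step quantifies HCVcc-Cre infection. Cells, 1,000 per well, had compound added 4 h post-plating, then virus at ~0.5 moi, and were cultured 44 h.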", "values": [
      {"compound": "Nc1n[nH]c(-c2cccc([N+](=O)[O-])c2)n1", "Potency": "inactive"},
      {"compound": "O=C(NNC(=O)c1ccc2ccccc2c1)c1ccc(Cl)cc1", "Potency": "inactive"},
      {"compound": "CCCCN(C(=O)C1CC(=O)N(c2ccc(CC)cc2)C1)c1c(N)n(CCC)c(=O)[nH]c1=O", "note": "(stereo not drawn)", "Potency": "inactive"},
      {"compound": "COCCNc1nc(C)cc(-c2cc(-c3ccc(Cl)cc3)on2)n1", "Potency": "inactive"},
      {"compound": "COc1ccccc1Nc1nc(N)nc(CSC(=S)N2CC(C)CC(C)C2)n1", "note": "(stereo not drawn)", "Potency": "inconclusive [inhibitor, single point]"},
      {"compound": "Cc1nc(CCNC(=O)CC2C(=O)NCCN2Cc2ccccc2)sc1C", "note": "(stereo not drawn)", "Potency": "inactive"},
      {"compound": "CCNCCC(CCC(C)C)c1ccc2c(c1)OCO2", "note": "(stereo not drawn)", "Potency": "inconclusive [inhibitor, partial curve]"},
      {"compound": "CC(=O)c1c(C)[nH]c(C(=O)OCC(=O)Nc2ccccc2Cl)c1C", "Potency": "inconclusive [inhibitor, partial curve, poor fit]"},
      {"compound": "O=C(O)c1ccc(/C=C(\\c2nc3ccccc3[nH]2)c2nc3ccccc3s2)cc1", "Potency": "inactive"},
      {"compound": "CCOc1nc(S(=O)(=O)c2ccc(C)cc2)c(Cl)s1", "Potency": "inactive"},
      {"compound": "O/N=C1/CC/C(=N\\O)c2nn(-c3ccccc3)nc21", "Potency": "inactive"},
      {"compound": "O=C(NCC(=O)N1CCN(S(=O)(=O)c2ccccc2)CC1)c1ccc2ccccc2c1", "Potency": "inactive"},
      {"compound": "COc1ccccc1C(=O)n1nc(-c2cccnc2)nc1NCc1ccccc1", "Potency": "inconclusive [inhibitor, single point]"},
      {"compound": "C[C@@H](C(=O)NC1CCCCC1)N1C(=O)N2CCc3c([nH]c4ccccc34)[C@@]2(C)C1=O", "Potency": "active: 0.562 µM"},
      {"compound": "Cc1ccc([N+](=O)[O-])cc1NC(=O)CN(C)CCOc1ccccc1", "Potency": "inconclusive [inhibitor, single point]"},
      {"compound": "CCOc1ccc(NC(=O)CN2CCN(c3ccccc3C)CC2)cc1S(=O)(=O)N1CCCC1", "Potency": "inconclusive [inhibitor, single point]"},
      {"compound": "COCCn1c(CN2CCN(c3ccccc3)CC2)nc2c1c(=O)n(C)c(=O)n2C", "Potency": "inconclusive [inhibitor, single point]"},
      {"compound": "O=C(c1ccc([N+](=O)[O-])cc1)N1CCSC1c1ccc(Cl)cc1", "note": "(stereo not drawn)", "Potency": "inconclusive [inhibitor, single point]"},
      {"compound": "CC(C)(C)OC(=O)C[C@@H]1C/C=C\\C[C@H](CC(=O)N(CCO)Cc2ccccc2)C(=O)N2CCC[C@H]2COC1=O", "Potency": "active: 1.12 µM"},
      {"compound": "CC1Oc2ccccc2N(CC(=O)Nc2ccc3c(c2)OCCO3)C1=O", "note": "(stereo not drawn)", "Potency": "inconclusive [inhibitor, full curve, poor fit]"},
      {"compound": "C/C(=N\\Nc1ccccn1)c1ccc(Br)s1", "Potency": "inconclusive [inhibitor, full curve, poor fit]"},
      {"compound": "Cc1ccc(NCc2ccc(O)c3ncccc23)cc1", "Potency": "active: 5.62 µM"},
      {"compound": "O=C(CCCN1C(=O)C(c2ccccc2)Oc2cccnc21)NCCc1ccc(Cl)cc1", "note": "(stereo not drawn)", "Potency": "inconclusive [inhibitor, partial curve]"},
      {"compound": "N#Cc1ccccc1OCC(=O)NC(=O)NCc1ccco1", "Potency": "inactive"},
      {"compound": "c1ccc(NCc2ccncc2)cc1", "Potency": "inactive"},
      {"compound": "CCc1ccc(CNC(=O)c2ccc3c(c2)NC(=O)C(N2CCOCC2)S3)cc1", "note": "(stereo not drawn)", "Potency": "inconclusive [inhibitor, single point]"},
      {"compound": "CCN(CC(=O)NCc1cccs1)C(=O)c1ccc(-c2ccccc2F)o1", "Potency": "inactive"},
      {"compound": "Cc1noc(C)c1S(=O)(=O)Nc1ccc(C(=O)Nc2ccc(OC(F)(F)F)cc2)cc1", "Potency": "active: 14.1 µM"},
      {"compound": "CCCCNC(=O)c1ccc2c(OCC)n(CCCC)nc2c1", "Potency": "inconclusive [inhibitor, partial curve]"},
      {"compound": "COc1cccc(CCN2CCC(CNS(=O)(=O)c3cc(-c4cc(C)no4)ccc3C)CC2)c1", "Potency": "active: 12.6 µM"},
      {"compound": "COc1cc2c(C(=O)N3CCN(C)CC3)c(C)oc2cc1Br", "Potency": "inconclusive [inhibitor, partial curve]"},
      {"compound": "Cc1ccc2c(c1)c1c3n2CCN(CC(O)CNC(C)C)C3CCC1", "note": "(stereo not drawn)", "Potency": "inconclusive [inhibitor, partial curve]"},
      {"compound": "CC1(C)S[C@@H]2[C@H](NC(=O)[C@H](N)c3ccccc3)C(=O)N2[C@H]1C(=O)O", "Potency": "inactive"},
      {"compound": "Cc1sc(NC(=O)C2=COCCO2)nc1-c1ccc(F)cc1", "Potency": "inconclusive [inhibitor, partial curve]"},
      {"compound": "O=C(Nc1ccccc1Cl)c1csc(-c2cccnc2)n1", "Potency": "inconclusive [inhibitor, single point]"},
      {"compound": "COc1ccccc1-n1cnc2cc(C(=O)NCc3ccco3)ccc21", "Potency": "inconclusive [inhibitor, single point]"},
      {"compound": "CC(C)CC(OC(=O)c1cccs1)C(=O)NCC1CCCO1", "note": "(stereo not drawn)", "Potency": "inconclusive [inhibitor, single point]"},
      {"compound": "CCCOc1ccc(OCCCCNC(C)CC)cc1", "note": "(stereo not drawn)", "Potency": "inconclusive [inhibitor, single point]"},
      {"compound": "c1csc(-c2nn3c(C4CCCCC4)nnc3s2)c1", "Potency": "inactive"},
      {"compound": "O=C(CC1CC2CCC1C2)NCCc1ccc(Cl)cc1", "note": "(stereo not drawn)", "Potency": "inactive"},
      {"compound": "COc1ccc(C)cc1Nc1n[n+](-c2ccccc2)c(-c2cccc(Cl)c2Cl)s1", "Potency": "inconclusive [inhibitor, partial curve]"},
      {"compound": "COc1cc2cc(-c3ccc(O)cc3O)nc(C)c2cc1OC", "Potency": "active: 5.62 µM"},
      {"compound": "Cc1cc(C)c2nc(SCC#N)cc(C)c2c1", "Potency": "inconclusive [inhibitor, partial curve]"},
      {"compound": "CCN1CCC(NCCc2ccc(F)cc2)CC1", "Potency": "inconclusive [inhibitor, partial curve]"},
      {"compound": "COc1ccc(C(=O)c2ccc(Br)cc2)cc1", "Potency": "inactive"},
      {"compound": "CCOC(=O)C1(CCCc2ccccc2)CCN(C(=O)CCc2cnn(C)c2)CC1", "Potency": "inconclusive [inhibitor, single point]"},
      {"compound": "CN(CCNC(=O)C1CCC(=O)N(Cc2ccc(Cl)cc2)C1)CCc1ccccc1", "note": "(stereo not drawn)", "Potency": "inactive"},
      {"compound": "CN(CCc1ccccc1)C(=O)c1ccc(NC(=O)Cc2ccc(NC(=O)C3CCCN(C(=O)C4CC4)C3)cc2)cc1", "note": "(stereo not drawn)", "Potency": "inconclusive [inhibitor, single point]"},
      {"compound": "CCCCN(C(C)=O)C1CC(=O)N(c2ccc(OCCC)cc2)C1=O", "note": "(stereo not drawn)", "Potency": "inactive"},
      {"compound": "O=C(O)C(NS(=O)(=O)c1ccc(F)cc1)c1ccccc1", "note": "(stereo not drawn)", "Potency": "inactive"},
      {"compound": "CCOc1cc(C2C(C(=O)OC)=CN(Cc3ccc(Cl)cc3)C=C2C(=O)OC)ccc1O", "Potency": "inconclusive [inhibitor, single point]"},
      {"compound": "COCC1CCCCN1C(=O)C1CCN(c2nc(-c3ccccc3)nc3c2CCC3)CC1", "note": "(stereo not drawn)", "Potency": "inconclusive [inhibitor, single point]"},
      {"compound": "Nc1c(C(=O)NCc2ccco2)nnn1CC(=O)Nc1ccc2c(c1)OCO2", "Potency": "inactive"},
      {"compound": "CCCCCc1cc(O)c2c3c(c(=O)oc2c1)CN(C)CC3", "Potency": "active: 10 µM"},
      {"compound": "CCC(C)(C)NC(=O)C(c1ccc(OC)cc1)N(C(=O)CCC(=O)Nc1cc(C)on1)c1ccccc1F", "note": "(stereo not drawn)", "Potency": "inconclusive [inhibitor, single point]"},
      {"compound": "COCCn1c(SCC(=O)/C=C2\\N(C)c3ccccc3C2(C)C)nnc1-c1ccncc1", "Potency": "inconclusive [inhibitor, single point]"},
      {"compound": "CCO[C@@H]1OC(C(N)=O)=C[C@H](c2ccc3c(c2)OCO3)[C@H]1CCCO", "Potency": "inactive"},
      {"compound": "COc1ccc(C(=O)NC2CC(C)(C)Cc3c2cnn3-c2ccccc2C)o1", "note": "(stereo not drawn)", "Potency": "inactive"},
      {"compound": "COc1cc(Br)cc(CN2CCN(C)CC2)c1O", "Potency": "inactive"},
      {"compound": "O=C(NCc1cccs1)Nc1cccc(Cl)c1", "Potency": "inactive"},
      {"compound": "O=C(/C=C(O)/C=C/c1ccc(O)cc1)/C=C/c1ccc(O)cc1", "Potency": "inconclusive [inhibitor, partial curve]"},
      {"compound": "O=C1Nc2ccccc2C12Nc1ccccc1-c1nc3ccccc3n12", "note": "(stereo not drawn)", "Potency": "inconclusive [inhibitor, partial curve]"},
      {"compound": "COc1cc2c(cc1OC)CN(C(=O)c1cc(=O)c3ccccc3o1)CC2", "Potency": "inconclusive [inhibitor, single point]"},
      {"compound": "CCCOc1ccccc1C1NC(=O)NC(C)=C1C(=O)OCc1ccccc1", "note": "(stereo not drawn)", "Potency": "inconclusive [inhibitor, single point]"},
      {"compound": "Cc1ccc2c(c1)c1c(n2C)C(C(N)=O)CCC1", "note": "(stereo not drawn)", "Potency": "inconclusive [inhibitor, partial curve]"},
      {"compound": "CCOC(=O)C1CCN(S(=O)(=O)c2cccc(-c3cn4cccnc4n3)c2)CC1", "Potency": "inconclusive [inhibitor, single point]"},
      {"compound": "Cc1ccc(-n2cc(CN3CCN(C(=O)c4ncn[nH]4)CC3)c(-c3ccc(F)cc3)n2)cc1", "Potency": "inconclusive [inhibitor, single point]"},
      {"compound": "O=C(Cn1nnc(-c2ccccc2)n1)N/N=C/c1cc([N+](=O)[O-])c(Cl)cc1Cl", "Potency": "inconclusive [inhibitor, single point]"},
      {"compound": "CCOCCCN(Cc1cc2cc(C)cc(C)c2[nH]c1=O)C(=O)N(CC)CC", "Potency": "inconclusive [inhibitor, single point]"},
      {"compound": "CN(c1ccc(OCC(=O)Nc2ccc(S(N)(=O)=O)cc2)cc1)S(=O)(=O)c1ccc(F)cc1", "Potency": "inconclusive [inhibitor, partial curve, poor fit]"},
      {"compound": "CC(=O)Nc1ccc(Nc2nc(-c3ccccc3)nc3ccccc23)cc1", "Potency": "active: 10 µM"},
      {"compound": "CN(C)CCNc1nc(S(=O)(=O)c2ccccc2)c(Cl)s1", "Potency": "inconclusive [inhibitor, single point]"},
      {"compound": "O=C(NC(=S)Nc1ccccc1N1CCCCC1)c1ccc(F)cc1", "Potency": "inconclusive [inhibitor, single point]"}
    ]}
  ]
}
